The supplement of paper PMC8728848
This is one part of the list.

Assays:
Test in all cases: glycan array binding signal (z-score within array); higher = stronger binding
Conditions in all cases: glycan notation: IUPAC condensed, linker removed
GlcNAc(b1-3)Man = molecular target: GlcNAc(b1-3)Man
Outline: (§1)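 Negative Z-scores can be read as non-binding. The Z-score is calculated within each array and then averaged across arrays of one protein sequence at different concentrations or buffers and across linkers. Arrays, 3228 in all, were curated from the Consortium for Functional Glycomics database and kept only where the protein sequence was available.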

[1] = molecular target: GlcNAc(b1-3)[GlcNAc(b1-4)][GlcNAc(b1-6)]GlcNAc
Outline: as §1

[2] = molecular target: GlcNAc(b1-3)[GlcNAc(b1-6)]Gal(b1-4)GlcNAc
Outline: as §1

[3] = molecular target: GlcNAc(b1-3)[GlcNAc(b1-6)]GalNAc
Outline: as §1

[4] = molecular target: GlcNAc(b1-4)Gal(b1-4)GlcNAc
Outline: as §1

GlcNAc(b1-4)GlcNAc = molecular target: GlcNAc(b1-4)GlcNAc
Outline: as §1

[5] = molecular target: GlcNAc(b1-4)GlcNAc(b1-4)GlcNAc
Outline: as §1

[6] = molecular target: GlcNAc(b1-4)GlcNAc(b1-4)GlcNAc(b1-4)GlcNAc(b1-4)GlcNAc
Outline: as §1

[7] = molecular target: GlcNAc(b1-4)GlcNAc(b1-4)GlcNAc(b1-4)GlcNAc(b1-4)GlcNAc(b1-4)GlcNAc
Outline: as §1

[8] = molecular target: GlcNAc(b1-4)[GlcNAc(b1-6)]GalNAc
Outline: as §1

[9] = molecular target: GlcNAc(b1-6)Gal(b1-4)GlcNAc
Outline: as §1

GlcNAc(b1-6)GalNAc = molecular target: GlcNAc(b1-6)GalNAc
Outline: as §1

[10] = molecular target: GlcNAc6S(b1-3)Gal(b1-4)GlcNAc
Outline: as §1

Kdn(a2-3)Gal(b1-3)GalNAc = molecular target: Kdn(a2-3)Gal(b1-3)GalNAc
Outline: as §1

Kdn(a2-3)Gal(b1-3)GlcNAc = molecular target: Kdn(a2-3)Gal(b1-3)GlcNAc
Outline: as §1

Kdn(a2-3)Gal(b1-4)Glc = molecular target: Kdn(a2-3)Gal(b1-4)Glc
Outline: as §1

Kdn(a2-3)Gal(b1-4)GlcNAc = molecular target: Kdn(a2-3)Gal(b1-4)GlcNAc
Outline: as §1

[11] = molecular target: Kdn(a2-3)Gal(b1-4)[Fuc(a1-3)]GlcNAc
Outline: as §1

Kdn(a2-6)Gal(b1-4)GlcNAc = molecular target: Kdn(a2-6)Gal(b1-4)GlcNAc
Outline: as §1

[12] = molecular target: Man(a1-2)Man(a1-2)Man(a1-3)Man
Outline: as §1

[13] = molecular target: Man(a1-2)Man(a1-2)Man(a1-6)[Man(a1-3)]Man
Outline: as §1

Man(a1-2)Man(a1-3)Man = molecular target: Man(a1-2)Man(a1-3)Man
Outline: as §1

[14] = molecular target: Man(a1-2)Man(a1-3)[Man(a1-2)Man(a1-6)]Man
Outline: as §1

[15] = molecular target: Man(a1-2)Man(a1-3)[Man(a1-2)Man(a1-6)]Man(a1-6)[Man(a1-2)Man(a1-2)Man(a1-3)]Man
Outline: as §1

[16] = molecular target: Man(a1-2)Man(a1-3)[Man(a1-2)Man(a1-6)]Man(a1-6)[Man(a1-2)Man(a1-2)Man(a1-3)]Man(b1-4)GlcNAc(b1-4)GlcNAc
Outline: as §1

[17] = molecular target: Man(a1-2)Man(a1-3)[Man(a1-6)]Man(a1-6)[Man(a1-2)Man(a1-3)]Man(b1-4)GlcNAc(b1-4)GlcNAc
Outline: as §1

[18] = molecular target: Man(a1-2)Man(a1-6)[Man(a1-3)]Man(a1-6)[Man(a1-2)Man(a1-2)Man(a1-3)]Man
Outline: as §1

[19] = molecular target: Man(a1-2)Man(a1-6)[Man(a1-3)]Man(a1-6)[Man(a1-2)Man(a1-2)Man(a1-3)]Man(b1-4)GlcNAc(b1-4)GlcNAc
Outline: as §1

Man(a1-3)[Man(a1-6)]Man = molecular target: Man(a1-3)[Man(a1-6)]Man
Outline: as §1

[20] = molecular target: Man(a1-3)[Man(a1-6)]Man(a1-6)[Man(a1-2)Man(a1-3)]Man(b1-4)GlcNAc(b1-4)GlcNAc
Outline: as §1

[21] = molecular target: Man(a1-3)[Man(a1-6)]Man(a1-6)[Man(a1-3)]Man
Outline: as §1

[22] = molecular target: Man(a1-3)[Man(a1-6)]Man(a1-6)[Man(a1-3)]Man(b1-4)GlcNAc(b1-4)GlcNAc
Outline: as §1

[23] = molecular target: Man(a1-3)[Man(a1-6)]Man(b1-4)GlcNAc(b1-4)GlcNAc
Outline: as §1

[24] = molecular target: Man(a1-3)[Man(a1-6)]Man(b1-4)GlcNAc(b1-4)[Fuc(a1-6)]GlcNAc
Outline: as §1

Man(a1-6)Man = molecular target: Man(a1-6)Man
Outline: as §1

Man(b1-4)GlcNAc = molecular target: Man(b1-4)GlcNAc
Outline: as §1

MurNAc(b1-4)GlcNAc = molecular target: MurNAc(b1-4)GlcNAc
Outline: as §1

Neu5Ac(a2-3)Gal = molecular target: Neu5Ac(a2-3)Gal
Outline: as §1

B1: PX14343A-bvu-539-29-539 (Bacteroides vulgatus) (protein)
chain: DSLTESSSNTFWQTPDDALMALASCYDALQSNQLYNSDQYSLGPLYMDCISDNGGHFNWSGWMEGYDMAMGIHTPSSSIIGSYWKDCYEVISRCNVLIANIDRVDMDASQKAIYQAEAKTIRALMYINLTMTYQDVPFLTAPLTIDEAECEKTDRAAIVAHVMTDLQDAAEVLPQNASSRGHITKGAALSLLGRVALYNEKWDDAIAAYKQVQGLGYSLDPSYAKLFTQSGETSPEIIFAVRYEGPGMSEGAAFNAHWNTPLEAMNGTIDLADAYYCKDGKPTTDTKIAELNGGGGLDVSKPNPAHFENRDPRLYSTLFVPGMLWNGKGGIDTSASNPYANVYGGAAASLSTVYVYKYFDPTDTSNSWDNGQDFYVVRYAEVLLSLAEAMVQKGGYVYSDVTALVNEVRQRADVNMPTVEEVEGTSLSKDELLEVIKHERRVELAFEGLRLFDLYRWKELDKAVANIENERTMYGLAYEARKFNGERDYVWPLPTAELDTNKKLVQHDLWK
glycan array binding signal (z-score) (GlcNAc(b1-3)Man): -0.249
glycan array binding signal (z-score) [1]: -0.368
glycan array binding signal (z-score) [2]: -0.27
glycan array binding signal (z-score) [3]: 0.118
glycan array binding signal (z-score) [4]: -0.308
glycan array binding signal (z-score) (GlcNAc(b1-4)GlcNAc): -0.324
glycan array binding signal (z-score) [5]: -0.345
glycan array binding signal (z-score) [6]: -0.313
glycan array binding signal (z-score) [7]: -0.481
glycan array binding signal (z-score) [8]: -0.304
glycan array binding signal (z-score) [9]: -0.038
glycan array binding signal (z-score) (GlcNAc(b1-6)GalNAc): 0.234
glycan array binding signal (z-score) [10]: -0.178
glycan array binding signal (z-score) (Kdn(a2-3)Gal(b1-3)GalNAc): -0.192
glycan array binding signal (z-score) (Kdn(a2-3)Gal(b1-3)GlcNAc): -0.031
glycan array binding signal (z-score) (Kdn(a2-3)Gal(b1-4)Glc): -0.013
glycan array binding signal (z-score) (Kdn(a2-3)Gal(b1-4)GlcNAc): -0.036
glycan array binding signal (z-score) [11]: 0.106
glycan array binding signal (z-score) (Kdn(a2-6)Gal(b1-4)GlcNAc): -0.096
glycan array binding signal (z-score) [12]: -0.136
glycan array binding signal (z-score) [13]: -0.086
glycan array binding signal (z-score) (Man(a1-2)Man(a1-3)Man): -0.271
glycan array binding signal (z-score) [14]: -0.129
glycan array binding signal (z-score) [15]: -0.261
glycan array binding signal (z-score) [16]: -0.433
glycan array binding signal (z-score) [17]: -0.437
glycan array binding signal (z-score) [18]: -0.259
glycan array binding signal (z-score) [19]: -0.229
glycan array binding signal (z-score) (Man(a1-3)[Man(a1-6)]Man): -0.263
glycan array binding signal (z-score) [20]: -0.34
glycan array binding signal (z-score) [21]: -0.226
glycan array binding signal (z-score) [22]: -0.247
glycan array binding signal (z-score) [23]: -0.432
glycan array binding signal (z-score) [24]: -0.297
glycan array binding signal (z-score) (Man(a1-6)Man): -0.184
glycan array binding signal (z-score) (Man(b1-4)GlcNAc): 0.136
glycan array binding signal (z-score) (MurNAc(b1-4)GlcNAc): -0.208
glycan array binding signal (z-score) (Neu5Ac(a2-3)Gal): -0.168
